This is one part of the list. The list includes weakly bound sequences.
Biological target: MaxL homodimer (UniProt P61244)
Assay: universal protein-binding microarray (PBM)
Conditions: PBS-based mixture, 10 nM His-tagged protein dimer, 2% milk, 200 ng/uL BSA, 50 ng/uL salmon testes DNA, 0.02% TX-100; detection with Alexa 488 anti-His …; high values mean tight binding; most listed sequences are background and not binding sites; double strand, one strand shown

UniProt P61244, sequence (P61244 whole entry): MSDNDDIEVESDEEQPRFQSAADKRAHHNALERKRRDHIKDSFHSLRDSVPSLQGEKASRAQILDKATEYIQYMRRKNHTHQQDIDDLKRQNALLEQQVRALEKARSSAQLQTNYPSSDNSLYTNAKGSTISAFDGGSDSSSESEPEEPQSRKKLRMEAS

Sequence | binding signal (normalized occupancy)
CCTTCACG | 0.0942
CCAATCAG | 0.0709
CATTAGCC | 0.0772
ATTGTGCA | 0.0762
GACCCGTA | 0.0742
CAGACCTC | 0.0736
AGGTGACG | 0.075
CCGTTACC | 0.0769
CGTTTCGC | 0.0696
ACCACTTG | 0.0746
AGTCCCCG | 0.0708
CATACTAG | 0.0857
GCGTTCGA | 0.0731
GCTATTCC | 0.0715
AGGATAAC | 0.087
AATCCATC | 0.0845
AACGCCCA | 0.0768
CATTTAGG | 0.077
TATACAAA | 0.0773
CCAACGCG | 0.0822
AAGCACAA | 0.0749
CTCGACAG | 0.0706
AGGCAATA | 0.0822
AACCTGCC | 0.0751
ATGGCCGA | 0.0733

Sequence | binding signal (normalized occupancy)
CGTTTTAC | 0.0742
TGTACGAA | 0.0781
ACCCTAAC | 0.0759
GTGATCGA | 0.0805
CCGATCGA | 0.0697
ACAAGATA | 0.0784
AAATCGTG | 0.0794
ATTACGTC | 0.0787
AAAAGATC | 0.0769
GACCGACC | 0.0733
ATGACCCA | 0.0834
TAATTCAA | 0.0795
CTCAACCA | 0.0735
ACACGCGC | 0.112
AAACCTAG | 0.0657
GAGCACCA | 0.0776
CGGAGCCG | 0.0643
GCACACGC | 0.1
AACAGAGG | 0.0695
CTAACCTA | 0.0783
GCTTTCAA | 0.0728
CTTCTATC | 0.0768
CGAGCGAC | 0.0714
ATCTACGG | 0.0772
ATCCGGCA | 0.0752

Sequence | binding signal (normalized occupancy)
ACTTACTA | 0.0785
ACCCTACC | 0.0802
AACTATGG | 0.0773
CGCGTGAC | 0.134
CCAGTCCC | 0.0739
AATGATTA | 0.0835
CATACTTA | 0.0818
AGCTGGGA | 0.0719
ATAAGCGA | 0.0735
GAACCCCA | 0.0774
AGTACATA | 0.0792
AAAGCTCA | 0.0682
ACGGGACC | 0.0741
CAGGGTAC | 0.0795
GGTAATCA | 0.0791
AGCCTCAC | 0.0774
ACTCGCTG | 0.0691
CGAAATAC | 0.0768
AGGGAGAA | 0.0737
AGTCGCGG | 0.0679
GGACTATA | 0.0837
AATAGCTG | 0.0716
CATGACCA | 0.0957
ACATAAGG | 0.079
CCTGACAG | 0.0722

Sequence | binding signal (normalized occupancy)
CCTTGCGC | 0.0714
GGATCTTA | 0.0763
AAAATGCG | 0.0782
ATAGAGCC | 0.0762
CAACGTGG | 0.154
TGTCGACA | 0.0845
AATTCTTA | 0.0759
CCGGGCTA | 0.0703
AACGCGCT | 0.0734
ACGCATAA | 0.0877
ACCATAGA | 0.0735
GCCGTGTA | 0.0812
CGAGCAAC | 0.07
CTGGTGCC | 0.0726
TGAAGTAA | 0.0798
GGTAGGGA | 0.0763
ACCAAACA | 0.0793
AGCACTCG | 0.0699
AGGCGACC | 0.0735
GTAGGCAA | 0.0719
CTGCTGAA | 0.0711
AGGTGCAC | 0.0767
ATATGCCG | 0.0773
AAACTACG | 0.0745
CCCACTCG | 0.0785

Sequence | binding signal (normalized occupancy)
ACGCTGAT | 0.0886
GTAGCTAA | 0.0702
GATATCAA | 0.0763
AAAACCCG | 0.075
CACCAATC | 0.0737
AGCTGCAT | 0.0762
GAGAAGAA | 0.0736
GTACCGCA | 0.0765
AGTACCAC | 0.0902
GGCACGAA | 0.0735
CTACCGTA | 0.0719
ATACCGTC | 0.071
CCGCTGCC | 0.0707
CCCATCAG | 0.078
AGAGAACG | 0.0746
ATCGCTGA | 0.0749
AACCCTCT | 0.069
AGTTGAGG | 0.0695
AACGAGAG | 0.0727
ACCAATGC | 0.0761
CCAAGAGC | 0.0705
CATAAGCA | 0.0814
TCGTCCAA | 0.0685
CAACCGTC | 0.075
ACGACACT | 0.0774

Sequence | binding signal (normalized occupancy)
ACATAATG | 0.0814
CTCCAGAA | 0.0691
AGTGTCCG | 0.07
CAAATTAC | 0.0734
AGTGTTGC | 0.0747
ACTACGCC | 0.0707
GCGGCTTA | 0.0718
AGTGTAGC | 0.0754
GACGCGAC | 0.0735
ACTCCGAG | 0.0698
GTATAAAC | 0.0779
AATTGGCG | 0.08
CAGACTTC | 0.0751
ATTGCTGC | 0.0726
CGTACATA | 0.0819
CGAAAGTC | 0.074
CCTAGGCA | 0.0685
AACAGTGG | 0.071
CGAGGGTA | 0.0799
CCAGCTAG | 0.0671
TAGTTGGA | 0.0742
CGACAGCG | 0.0641
CTGAAGGA | 0.068
AGGGACCC | 0.0695
ACTCAGAG | 0.0691

Sequence | binding signal (normalized occupancy)
TAGGTACA | 0.0738
CGAGCAAG | 0.0708
ACCCTCGT | 0.0793
CGACTCCG | 0.0659
GGCTGCAA | 0.0669
CTGGGCAA | 0.0686
TCCGGCGA | 0.069
ACTGCGGA | 0.0741
GCCTTAGC | 0.068
CCTTGAGA | 0.078
GCTACAAA | 0.0741
GCGCCAAA | 0.0715
GCCAAACC | 0.0702
CAATTGGG | 0.0733
GGCCGATA | 0.0714
AGACGTAA | 0.0714
CAAGGTGA | 0.0747
AACCAATA | 0.0723
GCCCGACC | 0.0665
GCCCGAAC | 0.0641
AATGACTA | 0.077
ATAAATTC | 0.0741
AGGAAGAT | 0.0741
AGACGTGG | 0.0819
AACTAAGG | 0.0696

Sequence | binding signal (normalized occupancy)
CACTATAG | 0.0785
AGTATAGC | 0.0769
AATGGCAG | 0.0712
GACCCAAA | 0.071
CCTCACCC | 0.0818
GCTCTGGA | 0.0718
AGGAAATG | 0.0748
ACAACGGA | 0.073
GCCACCCC | 0.0827
CCACATTC | 0.0852
AGAAGATA | 0.0794
GGGGGACC | 0.0757
GCCGTCGA | 0.0722
AGCCCTTA | 0.0705
GATGGTCC | 0.0777
AACAGAGT | 0.073
TAATTCTA | 0.0766
CCCATAGG | 0.0735
ACAACCAT | 0.0846
TCATGGAA | 0.084
TGTTTTAA | 0.0739
ATGCCCTA | 0.0836
GAGACAGC | 0.0726
ATGAAGCA | 0.082
CCCTTAAG | 0.0704

Sequence | binding signal (normalized occupancy)
ATTCAAGC | 0.0775
GAAGCGGC | 0.0715
ATATAAGG | 0.0767
ACACCCCT | 0.0822
TTAGCGAA | 0.0758
AATGAAAT | 0.0744
GGGTTGAC | 0.0676
GTCGGCAC | 0.0745
ACGGCGCC | 0.0713
TTCTTAAA | 0.0712
CCTAATAC | 0.0788
AGCCAACG | 0.0691
AGCGGTTC | 0.0674
ACCACCCT | 0.0783
ATCTGGCC | 0.072
ATTGTATA | 0.0832
TCAGCTCA | 0.0679
CGACAAGC | 0.0728
AGACGTGA | 0.0821
GTTAGATA | 0.0808
AATCTTCT | 0.0733
GTCAGTGA | 0.0739
GAGTAACC | 0.0745
GGTAACAC | 0.0726
CTTTGGTC | 0.0713

Sequence | binding signal (normalized occupancy)
CCGCCACA | 0.0785
CCCCCAAA | 0.072
AAGCAACC | 0.0724
GAGTGCTA | 0.0794
TCCTTTCA | 0.076
CCAATGTA | 0.0844
CGTTCCAC | 0.0724
GAGAGCGC | 0.0702
CGGAATGC | 0.0732
GCGACGCC | 0.0709
GAACGCAA | 0.0728
ACTGTCAG | 0.0748
AATCGCAT | 0.0786
AACCTCCT | 0.0812
AATGACGA | 0.0747
CGGGGTAA | 0.0797
TAAGATAA | 0.0765
AGAGGAAT | 0.074
CTAAGCTC | 0.0711
CGCTAATA | 0.0765
GCGAACTA | 0.0739
CTGCGCGA | 0.0685
GTGGGCCA | 0.0752
GAGCCACC | 0.0778
CCAACATA | 0.0775

Sequence | binding signal (normalized occupancy)
AGGGAAGA | 0.0706
GAGTAAGA | 0.0744
GTTGCAGA | 0.0724
CGTTGTGC | 0.0779
CCCTGGGC | 0.0692
CCAATACA | 0.0809
AGGTATCG | 0.0777
GTCAACCA | 0.0779
AATGGCCT | 0.0699
AGAGACTA | 0.0745
CGCACGCG | 0.121
AGACTCTG | 0.0648
CACCACAA | 0.0795
AATAAGTG | 0.0764
GCCTCGGA | 0.0704
CCTAATGC | 0.0805
ACTCGATA | 0.0762
AATTGCTA | 0.0737
CTTCTCGC | 0.0731
GACTCGAA | 0.0679
AAGTAACT | 0.0683
GGTATAAA | 0.0837
AAGTCTCT | 0.0732
AAGGTAAT | 0.0741
CAGCCGGG | 0.0671

Sequence | binding signal (normalized occupancy)
CTCTTGCA | 0.0725
AGTTGGCA | 0.0767
TCCTCTCA | 0.0711
ATTTTCTA | 0.0856
AGGGAAGG | 0.0787
ACATATTC | 0.0874
GAAGAGGA | 0.0698
AGCGAGTA | 0.0732
CAGAGAGC | 0.0689
AGCTCACC | 0.0704
AAACTTCT | 0.0684
AGGGATGC | 0.0814
AGTCTGCG | 0.0711
CCATTGCG | 0.0729
AAAGAGAC | 0.0712
ATGGTGCG | 0.0824
ACGGAGTA | 0.0708
CTAATCTC | 0.0732
TCGCCGAA | 0.0729
ATACTAAG | 0.0715
ACCTTAAT | 0.0764
CACGCTGA | 0.115
AACGGATT | 0.0695
AAGCTGGC | 0.0661
GTCGTCAA | 0.0747

Sequence | binding signal (normalized occupancy)
CCGGGTAA | 0.0757
AACATCTA | 0.0821
AGAACAAT | 0.0787
CAAGCTTG | 0.0708
CCCAGTAC | 0.0737
ACACACCC | 0.083
AGAAAATG | 0.0762
ACCTGGTA | 0.0753
GGCGCTAC | 0.0692
GTTCCGTA | 0.0742
GGATGCCA | 0.0814
CTCCCCCC | 0.0761
GGCAGTCA | 0.0686
TGAACCAA | 0.0739
CTAATTTA | 0.0726
ACACCTCG | 0.0873
ATCCGCGA | 0.0775
AAGGTAGC | 0.0707
AGCTTACC | 0.071
GGCCACCA | 0.0737
CTATACAC | 0.0863
CGGTAGAC | 0.0717
AATCTCGG | 0.0691
GGCTGAAA | 0.0709
CGGAAAAC | 0.0727

Sequence | binding signal (normalized occupancy)
AAAAGCCC | 0.0715
GATAGGAA | 0.0756
ATGCATTG | 0.0823
AATTGCAA | 0.0749
TCGACGAA | 0.0694
ATTACAAA | 0.0745
CAATCCTA | 0.0718
ACCTGCAC | 0.0789
CGTCCCGA | 0.0685
CTCGCAAC | 0.0718
CAATATGG | 0.0892
GACCAAGA | 0.0725
CATCTGGA | 0.0746
ATTACTGA | 0.075
GTTCCAAA | 0.0745
CACCCCCA | 0.0838
CGAGCGGC | 0.0633
CGGACGAA | 0.0664
GCATTGAA | 0.0779
